This is one part of the list.

This experiment concerns the target T1, OsWOX13 (Oryza sativa, UniProt Q5QMM3 1-267).
T1 sequence: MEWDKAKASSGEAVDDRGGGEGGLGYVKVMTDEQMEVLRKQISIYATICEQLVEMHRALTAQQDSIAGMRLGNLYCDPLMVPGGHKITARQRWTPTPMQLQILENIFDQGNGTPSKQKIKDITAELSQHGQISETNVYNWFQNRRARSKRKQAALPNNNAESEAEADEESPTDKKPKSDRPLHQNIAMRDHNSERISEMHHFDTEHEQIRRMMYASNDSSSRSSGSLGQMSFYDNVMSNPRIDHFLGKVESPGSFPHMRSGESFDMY
In words: protein-binding microarray (RPBM); PBS, 2% BSA, 51.3 ng/ul salmon testes DNA, 50 uM zinc acetate, 200 nM TF, 25 C, 1 h; high values mean tight binding. As to conditions: protein: recombinant; tags: N-terminal polyhistidine and DsRed monomer fusion (pET32a); label: CyDye5-dUTP incorporated in the synthesized complementary strand; 3' TTTTT single-stranded linker to array surface; dsDNA, one strand shown. The essentials:
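Binding signal is reported as fluorescence intensity per feature (arbitrary units) from an Axon 4000B scanner. Incubation used 200 nM of each Ni–NTA-purified, N-terminally polyhistidine- and DsRed-fused transcription factor from E. coli BL21-CodonPlus on a double-stranded custom Agilent array for 1 h at 25 °C, with 50 µM zinc acetate in the buffer, followed by washing.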
In the case of “AGAAAATATGGTCACATATTTGATTGGCAATTGCAAAGGACGGAGTCACCTAGTGCAG”, the binding signal is 23900 fluorescence intensity (a.u.).

In the case of “AGAGATCGATCGATTAATTAGCAACAAGCCAACGACAAGCCGGAGTCACCTAGTGCAG”, the binding signal was 4950 fluorescence intensity (a.u.).

“ATTAATCTATAATTATAGAATGTTTATTGTAGCATCACATCGGAGTCACCTAGTGCAG”: the binding signal was 20400 fluorescence intensity (a.u.).

Take “GGAAGCAAATTACAGAGATTAGGCACCACAAAATTGGTGGCGGAGTCACCTAGTGCAG”: the binding signal was 3840 fluorescence intensity (a.u.).

Turning to “TATTAATTTTCATCGATCTTAGTAAGTATCCTATTTACCTCGGAGTCACCTAGTGCAG”, the binding signal was 7750 fluorescence intensity (a.u.).

Consider “GTCATATCAATAATTTATTATGTTTACCTAGAGCATGTCTCGGAGTCACCTAGTGCAG”, for which the binding signal is 12300 fluorescence intensity (a.u.).

In the case of “TATTGATGTTTCAGGTTGATAGAATCAGTGATACCCTGCACGGAGTCACCTAGTGCAG”, the binding signal is 4280 fluorescence intensity (a.u.).

In the case of “CAACTAATTTAACCACTGTTTAATGCTTCTTCTGCTAACTCGGAGTCACCTAGTGCAG”, the binding signal is 24800 fluorescence intensity (a.u.).

For the sequence “CATAAATCAGGAATCATGACCCATGTTGTAAACTTCAAGACGGAGTCACCTAGTGCAG”, the binding signal is 3860 fluorescence intensity (a.u.).

With “CTGTGTAATTAGTTTATTTTGTCTATATTTAATACTCTATCGGAGTCACCTAGTGCAG”, the binding signal was 22800 fluorescence intensity (a.u.).

On to “AGAAATTGACGCCTTGAAATCTGCAATTAATGCAATTTTGCGGAGTCACCTAGTGCAG”, for which the binding signal is 33000 fluorescence intensity (a.u.).

As for “CATGATAAATTCATCATGGTTTCTTCGGGAAGCATGATGGCGGAGTCACCTAGTGCAG”, the binding signal is 3920 fluorescence intensity (a.u.).

As to “ATTGATGTAACTAGATTTATCATCAAACAAACTACTATCACGGAGTCACCTAGTGCAG”, the binding signal is 15400 fluorescence intensity (a.u.).

On to “GTGCTGATAAACACATAATTACTATGAAGCCATTGGAGTTCGGAGTCACCTAGTGCAG”, for which the binding signal was 9150 fluorescence intensity (a.u.).

“AGGTTCCAGTTGATTAGCTTTGGCAAAATATAACTGATCCCGGAGTCACCTAGTGCAG”: the binding signal was 9370 fluorescence intensity (a.u.).

With “CTCAATCACAGAATCATATTGTTGACTGAAGTATCTTGATCGGAGTCACCTAGTGCAG”, the binding signal was 19700 fluorescence intensity (a.u.).

Take “AAGTTTGTTGATTGTGCTAAACTATGTCATTTGAAGTTGTCGGAGTCACCTAGTGCAG”: the binding signal was 10200 fluorescence intensity (a.u.).

Turning to “GACTTTATTTATAATCATTATCCATCAAAACTTTAGAGAACGGAGTCACCTAGTGCAG”, the binding signal is 12800 fluorescence intensity (a.u.).

As to “ATAGAGGAGATTGAGAAGATACGCAAAACGAGATGAGCTACGGAGTCACCTAGTGCAG”, the binding signal was 5110 fluorescence intensity (a.u.).

Regarding “GGCAAATCAATCGAATCGATCCCCTCTCATCCGCTCGCGGCGGAGTCACCTAGTGCAG”, the binding signal is 6560 fluorescence intensity (a.u.).

“GAAGGTGGTTGATTAAACATGGTAATAGCACTAGGAGGTTCGGAGTCACCTAGTGCAG”: the binding signal was 4270 fluorescence intensity (a.u.).

With “TTGAGTAAATTGGTGTTGCTGCTTCTTCCTCCTCCGATCACGGAGTCACCTAGTGCAG”, the binding signal was 15700 fluorescence intensity (a.u.).

Take “AATTTACCCGGTCCAAATTGAAAAGATAGATTTAAAGGTGCGGAGTCACCTAGTGCAG”: the binding signal is 3840 fluorescence intensity (a.u.).

As for “ATCTCTCCAGTCTGTCTAATAATCAAAATCAAACCAGACCCGGAGTCACCTAGTGCAG”, the binding signal is 6180 fluorescence intensity (a.u.).

Consider “ATAGAATAGAATAGATAGATAGATAGATAGTAGATAGATCCGGAGTCACCTAGTGCAG”, for which the binding signal was 7420 fluorescence intensity (a.u.).

Take “ATATAATAGCTAATCAAACACTAGTCCGAAGACGTAGTATCGGAGTCACCTAGTGCAG”: the binding signal is 21700 fluorescence intensity (a.u.).

Regarding “CCTGACAGATATTTATATAAATCGCTGCTGTCTTCTCAAACGGAGTCACCTAGTGCAG”, the binding signal was 36000 fluorescence intensity (a.u.).

Turning to “GTAGTAGGATTGGTTCTCATAATTATCACATAATTTTCAACGGAGTCACCTAGTGCAG”, the binding signal was 9810 fluorescence intensity (a.u.).

Turning to “AAAACGATTATTGAAAGGCTCCTATTGGATGGCCTAATCACGGAGTCACCTAGTGCAG”, the binding signal is 3500 fluorescence intensity (a.u.).

On to “TAGTTTCATCAAATCAATAATTAAATATATTTTCATAATACGGAGTCACCTAGTGCAG”, for which the binding signal was 8900 fluorescence intensity (a.u.).

For the sequence “TTCTCCAATTGTAATCAGTCATCGCTTGTCCAATAATATTCGGAGTCACCTAGTGCAG”, the binding signal is 4440 fluorescence intensity (a.u.).

As to “TTGATTTTGTTAAAATTTATATCACTATTGAAACGTCCACCGGAGTCACCTAGTGCAG”, the binding signal was 10600 fluorescence intensity (a.u.).

As to “TTAAAATAGTTAATACTTAATTAATCATGCACTAATTTTACGGAGTCACCTAGTGCAG”, the binding signal is 3380 fluorescence intensity (a.u.).

In the case of “ATGCATATTATTGTGGTTGATTGATGAATTTTAAACTCAGCGGAGTCACCTAGTGCAG”, the binding signal is 47800 fluorescence intensity (a.u.).

Consider “ATGTAATTTGCAAAACAATAGTGTTCCCCTTTAATTTTGTCGGAGTCACCTAGTGCAG”, for which the binding signal was 21300 fluorescence intensity (a.u.).

For “ATTAAATTACATACGTATTACATATGCAATTTATGTAATCCGGAGTCACCTAGTGCAG”, the binding signal is 20000 fluorescence intensity (a.u.).

In the case of “AATGAGTTATTAGATTGGATATAAATGAATTGGAGCTAGTCGGAGTCACCTAGTGCAG”, the binding signal was 21800 fluorescence intensity (a.u.).

With “CAATAAAACCAACAGATTAATTAGGAAGATAAACAGGGAGCGGAGTCACCTAGTGCAG”, the binding signal is 6240 fluorescence intensity (a.u.).

Regarding “ATTAATAATGTATAATTTATTTTAGTGGTATTAATGTTGTCGGAGTCACCTAGTGCAG”, the binding signal was 22400 fluorescence intensity (a.u.).

On to “TATCATGACAGGCAAATCAGAAGCCACAAATTAAGATGCACGGAGTCACCTAGTGCAG”, for which the binding signal is 12100 fluorescence intensity (a.u.).

With “GGAGAAACAGGTAAATTTCCTTTACATCGTTTTACATGACCGGAGTCACCTAGTGCAG”, the binding signal is 3880 fluorescence intensity (a.u.).

On to “TTTTCTTCAAATTGACTTGGACCAATGATGAAACACGTAACGGAGTCACCTAGTGCAG”, for which the binding signal was 3600 fluorescence intensity (a.u.).

The values above are taken from paper PMC7819943, “Rice protein-binding microarrays: a tool to detect cis-acting elements near promoter regions in rice”.
